How the values were obtained:
[1] = target: T1, ECD of human CD8A/B heterodimer with His tag (recombinant CD8 alpha and beta heterodimer protein, Sino … (human, UniProt P01732 22-182; P10966 22-170); assay: BLI (Gator Prime), antibody captured on anti-human IgG Fc probe, 1:1 fit
T1 construct: extracellular domain; Bought from Sino Biological US Inc; also called Human CD8A/B with His tag; hu-CD8A/B heterodimer; not shown: poly histidine tag at the C-terminus
Protocol: Biolayer interferometry was used to measure the association and dissociation constants for the binding kinetics of the bivalent anti-human CD8A VHH antibodies. The binding kinetics was measured on a Gator Prime system (Gator Bio, Inc.) at 30° C. and analyzed with the Gator Prime software. Anti-human-IgG Fc (HFC) probe (Gator Bio, Inc.) was used to capture the anti-hu-CD8 VHH antibodies or control antibodies. A kinetic buffer only well was set as a reference well for subtraction during data processing. Data were fitted with a 1:1 Langmuir model for association and dissociation using Rmax linked global fitting for each antibody-antigen binding. Human CD8A/B with His tag is recombinant CD8 alpha and beta heterodimer protein with a poly histidine tag fused to C-terminus (Sino Biological US Inc.).

[2] = target: T2, recombinant cyno-CD8A ECD polypeptide fused at its C-terminus to a human Fc tag (cynomolgus monkey); assay: BLI (Gator Prime), cyno CD8A ECD-Fc as antigen
T2 construct: Bought from Sino Biological US Inc; also called ECD of cynomolgus monkey CD8A with Fc tag; not shown: human Fc tag
Protocol: To understand the species cross-reactivity to cyno-CD8A, the binding kinetics of anti-CD8 VHH-Fc antibodies to cyno-CD8A were also measured on Gator Prime. A recombinant cyno-CD8A ECD polypeptide of SEQ ID NO: 108 (UniProt A0A2K5ULI8) fused at its C-terminus to a human Fc tag was used as antigen (Sino Biological US Inc.).

T1 sequence (P01732 22-182, chain 1 of 2): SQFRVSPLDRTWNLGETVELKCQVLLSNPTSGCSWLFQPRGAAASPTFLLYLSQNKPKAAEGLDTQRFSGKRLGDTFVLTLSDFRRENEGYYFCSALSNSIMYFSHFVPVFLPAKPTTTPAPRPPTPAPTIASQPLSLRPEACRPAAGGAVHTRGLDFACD
T1 sequence (P10966 22-170, chain 2 of 2, further chain): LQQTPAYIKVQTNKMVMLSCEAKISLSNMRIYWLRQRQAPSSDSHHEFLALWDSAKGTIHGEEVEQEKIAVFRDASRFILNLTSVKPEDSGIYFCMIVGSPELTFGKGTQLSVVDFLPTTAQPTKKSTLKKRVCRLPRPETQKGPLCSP

| Binder | Kd [1] | koff [1] | kon [1] | Kd [2] | koff [2] | kon [2] |
| --- | --- | --- | --- | --- | --- | --- |
| anti-CD8 VHH antibody clone 3A8 (bivalent VHH-Fc) (Fc fusion, VHH fused to the N-terminus of hinge and Fc of human IgG1; bivalent; made in CHO cells) QVQLQESGGGLVQAGGSLRLSCAASGFTFDEYAIGWFRQAPGKEREGVSCLRVSDGRTYYPDSVKGRFAISSDNAKNTVYLQMNNLKPEDTAVYYCASGSYYGCTVDDYDFWGQGTQVTVSS[here human IgG1 Fc without letters] | 8.84 nM | 0.00266 s⁻¹ | 301000 M⁻¹ s⁻¹ | 0.0921 nM | 0.000102 s⁻¹ | 1.11e+06 M⁻¹ s⁻¹ |
| anti-CD8 VHH antibody clone 3D10 (bivalent VHH-Fc) (Fc fusion, VHH fused to hinge and Fc of human IgG1; bivalent) QVQLQESGGGLVQAGGSLRLSCAASGFTFDEYAIGWFRQAPGKEREGVSCLRVSDGRTYYPDSVKGRFAISSDNAKNTVYLQMNNLKPEDTAVYYCASGSYYGCTVHDYDFWGQGTLVTVSS[here human IgG1 Fc without letters] | 8.25 nM | 0.00226 s⁻¹ | 274000 M⁻¹ s⁻¹ | 0.795 nM | 0.000432 s⁻¹ | 544000 M⁻¹ s⁻¹ |
| anti-CD8 VHH antibody clone 4D5 (bivalent VHH-Fc) (Fc fusion, VHH fused to hinge and Fc of human IgG1; bivalent) QVQLQESGGGLVQAGGSLRLSCAASGFTFNEYAIGWFRQAPGKEREGVSCLRVSDGRTYYPYSVKGRFAISNDNANNTVYLQMNNLKPEDTAVYYCASGSYYGCTVDDYDFWGQGTQVTVSS[here human IgG1 Fc without letters] | 6.08 nM | 0.00193 s⁻¹ | 318000 M⁻¹ s⁻¹ | 0.143 nM | 0.000128 s⁻¹ | 898000 M⁻¹ s⁻¹ |
| anti-CD8 VHH antibody clone 4H5 (bivalent VHH-Fc) (Fc fusion, VHH fused to hinge and Fc of human IgG1; bivalent) QVQLQESGGGLVQAGGSLRLSCAASGLTVNSDHMAWFRQAPGKWRDFVAAISGNGGSTYYADSVKGRFTISRDDAKNTVYLQMNSLKPEDTAVYTCAADRQVWRAASYHDYDYDSWGQGTLVTVSS[here human IgG1 Fc without letters] | 43.6 nM | 0.00786 s⁻¹ | 180000 M⁻¹ s⁻¹ | 43.6 nM | 0.00786 s⁻¹ | 180000 M⁻¹ s⁻¹ |
| anti-CD8 VHH antibody clone 1A5 (bivalent VHH-Fc) (Fc fusion, VHH fused to hinge and Fc of human IgG1; bivalent) QVQLVESGGGLVQAGGSLRLSCAASGFTFDDYAIGWFRQAPGKEREGVSCISNIDGSTYYADSVKGRFTISSDNAKNTVYLQMNSLKPEDTAVYYCAAEGLHSCRDLYYGMDYWGKGTLVTVSS[here human IgG1 Fc without letters] | 11.8 nM | 0.00282 s⁻¹ | 240000 M⁻¹ s⁻¹ | – | 0.00282 s⁻¹ | 240000 M⁻¹ s⁻¹ |

Other lines, results leading:

| Kd [1] | koff [1] | kon [1] | Kd [2] | koff [2] | kon [2] | Binder |
| --- | --- | --- | --- | --- | --- | --- |
| 8.59 nM | 0.00236 s⁻¹ | 274000 M⁻¹ s⁻¹ | 0.568 nM | 0.000301 s⁻¹ | 530000 M⁻¹ s⁻¹ | anti-CD8 VHH antibody clone 3A4 (bivalent VHH-Fc) (Fc fusion, VHH fused to hinge and Fc of human IgG1; bivalent) QVQLQESGGGLVQAGGSLRLSCAASGFTFDEYAIGWFRQAPGKEREGVSCLRVSDGRTYYPDSVKGRFAISSDNAKNTVYLQMNNLKPEDTAVYYCASGSYYGCTVHDYDFWGQGTQVTVSS[here human IgG1 Fc without letters] |
| 8.7 nM | 0.00296 s⁻¹ | 340000 M⁻¹ s⁻¹ | 0.598 nM | 0.000124 s⁻¹ | 207000 M⁻¹ s⁻¹ | humanized anti-CD8 VHH antibody clone 3A8-hu01 (bivalent VHH-Fc) (Fc fusion) EVQLVESGGGLVQPGGSLRLSCAASGFTFDEYAIGWFRQAPGKEREGVSCLRVSDGRTYYPDSVKGRFTISRDNSKNTVYLQMNSLRAEDTAVYYCASGSYYGCTVDDYDFWGQGTQVTVSS[here human IgG1 Fc without letters] |
| 3.47 nM | 0.00116 s⁻¹ | 334000 M⁻¹ s⁻¹ | 0.0965 nM | 0.000102 s⁻¹ | 1.05e+06 M⁻¹ s⁻¹ | anti-CD8 VHH antibody clone 4C9 (bivalent VHH-Fc) (Fc fusion, VHH fused to hinge and Fc of human IgG1; bivalent) QVKLEESGGGLVQAGDSLRLSCAASGLTVSSDHMAWFRQAPGKWREFVAAISGNGGSTYYADSVKGRFTISRDNAKNTVYLQMNNLKPEDTAVYSCAADRQVWRVASYHDYDYDSWGQGTQVTVSS[here human IgG1 Fc without letters] |
| 23.8 nM | 0.00507 s⁻¹ | 213000 M⁻¹ s⁻¹ | 0.937 nM | 0.000432 s⁻¹ | 461000 M⁻¹ s⁻¹ | anti-CD8 VHH antibody clone 3G7 (bivalent VHH-Fc) (Fc fusion, VHH fused to hinge and Fc of human IgG1; bivalent) QVQLQESGGGLVQAGGSLRLSCAASGSIAEIASLRAMDWYRQAPGKRRELVAHIARNDVTNYADDVKGRFTISRDNAKNAVYLQMNNLKPEDTAVYYCNTVPWYGTWGQGTLVTVSS[here human IgG1 Fc without letters] |
| 44.5 nM | 0.00953 s⁻¹ | 214000 M⁻¹ s⁻¹ | 44.5 nM | 0.00953 s⁻¹ | 214000 M⁻¹ s⁻¹ | anti-CD8 VHH antibody clone 2G3 (bivalent VHH-Fc) (Fc fusion, VHH fused to hinge and Fc of human IgG1; bivalent) QVQLQESGGGLVQPGGSLKLSCAASGFTFYDYAIGWFRQAPGKEREGVSCISNIDGSTYYADSVKGRFTISTDNAKNTVYLQMNSLKPEDTAVYYCAAEGLHSCRDLYYGMDYWGKGTLVTVSS[here human IgG1 Fc without letters] |
| 8.38 nM | 0.00313 s⁻¹ | 373000 M⁻¹ s⁻¹ | 0.0547 nM | 0.000127 s⁻¹ | 2.32e+06 M⁻¹ s⁻¹ | anti-CD8 VHH antibody clone 3D12 (bivalent VHH-Fc) (Fc fusion, VHH fused to hinge and Fc of human IgG1; bivalent) QVQLVESGGGLVQAGGSLRLSCAASGNIDEIASIRAMDWYRQAPGRQRELVAHIARNGITDYKDFVKGRFTISRDNAKNTVYLQMNSLKPEDTAVYYCNTVPWYGTWGQGTQVTVSS[here human IgG1 Fc without letters] |

— patent US20260209353A1 (BINACEA PHARMA, published 2026)
